This assay relates to NCI-H322M lung. Briefly: NCI tumour cell line growth inhibition, 48 h.

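Test compounds were applied to cells in 96-well plates for 48 hours at 5 doses. GI50 marks 50% less growth. TGI marks complete inhibition of growth.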

On to `O=C(CCCCCCNC(=O)C(O)(O)C(F)(F)F)Nc1ccc(-c2ccccc2)cc1`, for which the GI50 is 5.31 µM and the TGI stood at 32.7 µM.
The matching figures for `O=S(=O)(NC1CC2CCC1C2)c1ccc2c(c1)C(=NO)c1cc(S(=O)(=O)NC3CC4CCC3C4)ccc1-2` (centres undefined): more than 100 µM and more than 100 µM.

These data come from PubChem BioAssay (NCI).
